These results are taken from PubChem BioAssay AID488969 (Vanderbilt High Throughput Screening Facility, 2010).

Structures are written as SMILES. Whole data set: some 110,000 compounds, median “z-score” near -0.1, cut for the highest 2% near 2. The list shows a part of the results. Active and inactive are the calls of the source.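 How the source made its calls: active means z-score in the third read window above 3 or below -3; inactive means the rest.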

For this experiment, the target named is Metabotropic glutamate receptor 8 (Rattus norvegicus) (UniProt P70579). The experiment can be described thus: rat mGluR8 modulators via GIRK flux, primary screen, cell-based, thallium flux, HTS (AID 488969). The following applies: HEK293 rat mGluR8, GIRK (G protein-gated inwardly rectifying potassium channel) thallium flux, FluoZin2; at 10 µM; stronger effect = higher value; submaximal glutamate (EC20) added with thallium.
Sequence of UniProt P70579 (P70579 whole entry, looked up): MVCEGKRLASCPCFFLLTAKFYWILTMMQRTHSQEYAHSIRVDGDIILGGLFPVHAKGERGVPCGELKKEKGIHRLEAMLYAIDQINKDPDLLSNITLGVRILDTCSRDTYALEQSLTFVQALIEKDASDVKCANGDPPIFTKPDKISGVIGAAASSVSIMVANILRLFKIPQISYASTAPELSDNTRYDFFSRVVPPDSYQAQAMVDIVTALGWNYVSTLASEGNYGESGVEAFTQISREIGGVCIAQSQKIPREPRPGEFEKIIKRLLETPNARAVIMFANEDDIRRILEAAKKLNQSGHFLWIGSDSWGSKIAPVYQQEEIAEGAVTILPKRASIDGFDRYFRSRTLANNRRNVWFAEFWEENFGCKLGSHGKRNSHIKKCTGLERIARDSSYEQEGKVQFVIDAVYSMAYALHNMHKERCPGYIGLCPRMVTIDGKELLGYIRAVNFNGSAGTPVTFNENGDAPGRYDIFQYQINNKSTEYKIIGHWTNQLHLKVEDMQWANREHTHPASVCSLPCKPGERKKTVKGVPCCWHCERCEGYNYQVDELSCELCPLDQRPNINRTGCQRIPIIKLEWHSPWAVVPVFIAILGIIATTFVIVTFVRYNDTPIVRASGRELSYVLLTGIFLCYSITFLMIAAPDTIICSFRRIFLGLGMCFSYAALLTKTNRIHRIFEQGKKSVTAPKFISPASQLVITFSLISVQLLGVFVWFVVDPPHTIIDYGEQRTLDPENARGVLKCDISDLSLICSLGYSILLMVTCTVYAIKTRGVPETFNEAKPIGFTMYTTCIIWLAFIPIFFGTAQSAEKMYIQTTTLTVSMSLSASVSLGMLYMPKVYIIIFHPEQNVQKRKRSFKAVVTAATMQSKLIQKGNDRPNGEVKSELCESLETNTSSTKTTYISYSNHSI
In turn, `Fc1ccc(C2CC(c3ccco3)=NN2c2ccccc2)cc1` (stereo not given) showed a z-score of 0.625.

Consider `Cc1cc(C)c2c(N)c(C(=O)c3ccccc3)oc2n1`, for which the z-score is -0.545.

For the compound `O=c1c2ccccc2c(-c2ccc(O)cc2)nn1-c1cccc(C(F)(F)F)c1`, the z-score is -0.47.

In the case of `Cc1ccc(C2CC2c2n[nH]c(=S)n2-c2cccc(Cl)c2)cc1` (stereo not given), the z-score turned out to be 0.358.

Turning to `O=S(=O)(Nc1ccc(O)c(Sc2nc3ccccc3s2)c1)c1ccc(Cl)cc1`, the z-score was -0.418.

For the compound `Cc1ccc(NC(=O)CN(C)C(=O)CSc2ncc(C(F)(F)F)cc2Cl)cc1`, the z-score was -0.234.

`CC(=O)c1cc(F)c(N2CCN(C(=O)c3ccco3)CC2)cc1C` gave a z-score of 0.167.

For the compound `O=C(OCC#CCSc1nnc(-c2cccc3ccccc23)o1)c1cccs1`, the z-score stood at 0.0313.

Take `O=C(NCC1CCCO1)c1ccc(Cl)c(F)c1F` (stereo not given): the z-score is -0.146.

In the case of `Cc1cccc(C(=O)OCC(=O)Nc2ccc(N3CCCCC3)cc2)c1O`, the z-score is -0.231.

In turn, `C#CCSc1nc2[nH]ncc2c(=O)[nH]1` had a z-score of -0.143.

Take `CN(C(=O)c1ccccc1C(=O)c1ccccc1)C1CCS(=O)(=O)C1` (stereo not given): the z-score is -0.175.

Take `Cc1ccc(S(=O)(=O)N2CCCC2C(=O)O)s1` (stereo not given): the z-score is -0.175.

`CC1CN(C2CCN(C(=O)c3ccccc3Cl)CC2)CC(C)O1` (stereo not given) gave a z-score of 0.238.

On to `O=C(OCc1ccc2c(c1)OCO2)c1ccc(S(=O)(=O)N2CCCCC2)cc1`, for which the z-score was -0.138.

For `Cc1ccc(C)c(CN2C(=O)C3CCCN3c3ccc(C#N)cc32)c1` (stereo not given), the z-score is -0.327.

Consider `CCOC(=O)c1ccccc1NC(=O)c1ccccc1SC`, for which the z-score was -0.106.

The compound `Cc1ccc(OCC(=O)NC2CCCc3ccccc32)c(C)c1` (stereo not given) gave a z-score of -0.16.

On to `CCc1nnc(NC(=O)CSc2nnc(-c3ccc(NS(=O)(=O)c4ccccc4)cc3)o2)s1`, for which the z-score is -0.343.

`CC12CCC(c3c1nc1ccccc1[n+]3[O-])C2(C)C` (stereo not given) came in with a z-score of -0.19.

For `COC(=O)c1ccc(NC(=O)Cn2nc(-c3ccncc3)nc2SCC(=O)Nc2nccs2)cc1`, the z-score is -0.14.

`O=C(CCn1c(=O)oc2ccccc21)NCCN1CCc2ccccc2C1` showed a z-score of 0.37.

With `CCOc1ccc(C2/C(=C(/O)c3ccccc3)C(=O)C(=O)N2CCCN(C)C)cc1OC` (stereo not given), the z-score came to 0.188.

`Cc1nc(N2CCN(Cc3ccccc3)CC2)nc2c1C(=O)CC(C)C2` (stereo not given) registered a z-score of -0.812.

In the case of `Cc1cccc(C(=O)NC(=S)N2CCN(C(=S)NC(=O)c3cccc(C)c3)CC2)c1`, the z-score was determined as 0.153.

Regarding `NNc1nccc(Nc2ccccc2C(=O)O)n1`, the z-score came to 1.44.

Consider `O=C(NCC1CCCO1)C12CN(Cc3ccccc3)CC1C(c1cccc([N+](=O)[O-])c1)=NO2` (stereo not given), for which the z-score came to 0.0433.

Consider `CCOC(=O)COn1c(=O)c[n+]([O-])c2ccccc21`, for which the z-score was -0.0558.

For the compound `Cc1ccc(C(=O)Nc2ccccc2C(N)=O)o1`, the z-score is 0.0853.

Regarding `CC(C)C(=O)OCC(=O)Nc1ccc(N=Nc2ccccc2)cc1`, the z-score is active: 10.5.

On to `COC(=O)c1sc(N)c(C(=O)OC)c1CSc1nnnn1C`, for which the z-score was 0.0241.

For the compound `CC(C)Oc1ccc2nnnn2n1`, the z-score is -0.239.

The compound `CCCOc1ccc(C(O)C(CN2CCOCC2)c2ccccc2)cc1` (stereo not given) gave a z-score of -0.138.

On to `CCOCCCNC(=S)N1CCN(C(=O)C(=O)Nc2ccc(C(=O)OC)cc2)CC1`, for which the z-score was -0.11.

In turn, `CC(C)Oc1cccc(-c2nnc(SCC(=O)Nc3ccc4c(c3)OCCO4)n2N)c1` displayed a z-score of -0.419.

`Cn1cc(CC(=O)N2CCN(c3ccccc3F)CC2)c2ccccc21` returned a z-score of -0.102.

Take `CC1CN(S(=O)(=O)c2cccc(-c3csc(-c4ccccc4)n3)c2)CC(C)O1` (stereo not given): the z-score is 0.384.

`CCOC(=O)c1c(CNCCN(CC)CC)n(C)c2cc(Br)c(OC)cc12`: the z-score is active: 3.02.

As for `C/C(=N\NC(=O)c1c(Cl)c(C)nn1C)c1ccc(NC(=O)COc2ccc(Cl)cc2C)cc1`, the z-score was determined as 0.132.

The compound `COC(=O)CNC(=O)c1ccc(C)s1` returned a z-score of -0.182.

Turning to `CC(C)CNC(=S)NC(=O)c1ccc(Cl)cc1Cl`, the z-score was active: 13.8.

Compound `O=C(Cn1cc2c(n1)CCCC2)N1CCOCC1` returned a z-score of 0.216.

`CCOC(=O)C1=C(c2ccccc2)ON(C)C1c1ccccc1` (stereo not given) gave a z-score of -0.0203.

As to `CCNC(=S)Nc1ccc(N(c2ccccc2)C(C)C)cc1`, the z-score was -0.0152.

On to `COc1cc2c(=O)n(Cc3ccccc3)c(=O)n(CC(=O)NCCc3ccccc3)c2cc1OC`, for which the z-score was -0.669.

In turn, `Cc1ccc(NC2=C(Cl)C(=O)OC2OC(=O)c2ccco2)cc1` (stereo not given) registered a z-score of -0.434.

In turn, `CC1CCC2C(=O)N(c3ccccc3OC(=O)c3ccccc3)C(=O)C2C1` (stereo not given) returned a z-score of -0.566.

The compound `CCN(CCO)Cc1csc2cccc(Br)c12` displayed a z-score of -0.193.

Compound `COc1cc2c(cc1NC(=O)C(C)N1CCN(S(=O)(=O)c3ccccc3[N+](=O)[O-])CC1)oc1ccccc12` (stereo not given) yielded a z-score of -0.376.

Compound `O=C(CC1SC(=Nc2cccc3ccccc23)N(Cc2ccccn2)C1=O)Nc1ccccc1Br` (stereo not given) came in with a z-score of 0.215.

Compound `Cc1ccc2occ(/C=N/NC(N)=S)c(=O)c2c1` showed a z-score of -0.503.

On to `NC(=O)c1cnn2c(C(F)(F)F)cc(-c3ccc(F)cc3)nc12`, for which the z-score is 0.321.

For the compound `O=C1CC(c2nc3ccccc3[nH]2)CN1c1ccccc1` (stereo not given), the z-score is -0.634.

For `CCOc1cccc(N2C(=O)CC(n3cnc4ccccc43)C2=O)c1` (stereo not given), the z-score is -0.143.

Turning to `c1ccc(COc2ccc(OCCOCCn3cncn3)cc2)cc1`, the z-score came out at 0.218.

In the case of `Cc1ccc(-c2nnc(-n3nnc4ccccc43)c3ccccc23)cc1`, the z-score amounted to 0.00269.

`O=C(CN1CCOCC1)N1CCN(c2nnc(-c3ccccc3)c3ccccc23)CC1` displayed a z-score of -0.343.

Consider `CCCCN(C(=O)CNC(=O)c1cccs1)C(C(=O)NC1CCCCC1)c1cccnc1` (stereo not given), for which the z-score is 0.108.

Turning to `O=C(CC1SC(=O)N(Cc2ccc(Cl)cc2)C1=O)Nc1nccs1` (stereo not given), the z-score is -0.132.

For `COc1cc(NC(=O)c2ccc(F)cc2)c(OC)cc1Cl`, the z-score was -0.836.

For `Nc1nonc1-c1nc2ccccc2n1CC(=O)O`, the z-score is -0.383.

The compound `CCCCOc1ccc(/C=C/C(=O)OCC(=O)NC(=O)NCC(C)C)cc1OCC` displayed a z-score of -0.0691.

In the case of `CCCSc1nn2c(=O)c3ccccc3nc2s1`, the z-score is -0.252.

For `O=C(OCc1nc2ccccc2[n+]([O-])c1C(=O)c1ccccc1)c1cccs1`, the z-score is 0.108.

`Cc1nn(-c2ccccc2)c(C)c1NC(=O)COc1ccc(F)cc1Cl`: the z-score is -0.254.

For `CCn1c(Cc2ccccc2)nnc1SCc1ccc([N+](=O)[O-])cc1`, the z-score was -0.0624.

The compound `CCC(CC)C(=O)Nc1cc([N+](=O)[O-])ccc1Cl` had a z-score of -0.151.

The compound `CCN(CC)C(=O)CSc1nc2c(sc(=S)n2CC)c(=O)n1-c1ccccc1` had a z-score of -0.101.

In the case of `O=C(Nc1ncccn1)C1CCCN1S(=O)(=O)c1ccc(Cl)c(Cl)c1` (stereo not given), the z-score came out at 0.92.

`COc1ccc(C2CC(c3ccc(Br)cc3)=NN2C(=O)CSC2=NCCS2)cc1` (stereo not given) yielded a z-score of -0.0812.

Compound `COc1ccc(OC)c(S(N)(=O)=O)c1` had a z-score of -0.21.

In turn, `Clc1ccc(Nc2nc(C3CC3)cs2)cc1` yielded a z-score of -0.305.

For the compound `Nc1nnnn1/N=C/c1cccc(Oc2ccccc2)c1`, the z-score was -0.0762.

In turn, `Cc1ccc(NC(=O)C(=O)NCc2ccc(/C=C(/C#N)C(=O)NCc3cccnc3)o2)cc1` came in with a z-score of -0.269.

On to `CCOc1nc(C)ccc1-c1noc(-c2ccccc2OC)n1`, for which the z-score was -1.27.

For the compound `Cc1ccc2c(c1)C1CN(C)CCC1N2C(=O)c1ccccc1NS(=O)(=O)c1ccc(F)cc1` (stereo not given), the z-score was -0.699.

`O=C(NCc1cccs1)C1CCC(CNS(=O)(=O)c2cccs2)CC1` (stereo not given) gave a z-score of -0.00847.

As for `COc1ccc(-n2c(C)nc3c(cnn3-c3ccc(Cl)cc3)c2=O)cc1`, the z-score was -0.692.

Consider `COc1ccc(NC(=O)CCNC(=O)Cn2ccc3ccccc3c2=O)c(OC)c1`, for which the z-score is -0.123.

Compound `O=C(CCCn1c(SCC(=O)NCC2CCCO2)nc2ccccc2c1=O)NCC1CCCO1` (stereo not given) showed a z-score of 0.0275.

`CCOCC(=O)Nc1ccc(S(=O)(=O)NCCc2ccccc2)cc1` displayed a z-score of -0.0788.

In turn, `COc1cc([N+](=O)[O-])ccc1NC(=O)CCCOc1ccc(C)cc1` registered a z-score of -0.467.

Regarding `O=C(/C=C/c1ccc(-c2ccccc2)o1)c1ccccc1`, the z-score was -0.298.

The compound `Cc1c(Cl)c([N+](=O)[O-])nn1Cc1ccc(C(=O)N/N=C\c2cc(Cl)ccc2O)o1` returned a z-score of 0.0342.

`Cc1ccccc1NC(=S)N(C)Cc1cccs1`: the z-score came to 0.0767.

In turn, `O=C(Cn1ccc(C(F)(F)F)n1)N/N=C/c1cccs1` came in with a z-score of 0.542.

Compound `COCCNC(=O)C(C#N)c1nc2ccccc2nc1N1CCCCCC1` (stereo not given) showed a z-score of -2.4.

`CCNS(=O)(=O)c1ccc(C)c(-n2cnnn2)c1C` had a z-score of 0.244.

In turn, `O=C(Nc1cc(C(F)(F)F)ccc1N1CCCCC1)c1cccc([N+](=O)[O-])c1` gave a z-score of -0.0811.

The compound `COc1ccc(C2CC(=O)Nc3cc(C)c(C)cc32)c(OC)c1OC` (stereo not given) registered a z-score of -0.209.

For the compound `COc1ccc(S(=O)(=O)NCC(c2cccnc2)N2CCN(C)CC2)cc1C` (stereo not given), the z-score is -0.387.

The compound `COCCNC(=O)CN1CCN(C(c2ccccc2)c2ccccc2)CC1` showed a z-score of 0.25.

The compound `CCOC(=O)c1ccc(NC(=O)CSc2nnnn2C2CCCCC2)cc1` showed a z-score of -0.166.

For `O=C(CC12CC3CC(CC(C3)C1)C2)N1CCCC1`, the z-score is -0.327.

In turn, `c1ccc(OCCCn2nnc(-c3ccc(N4CCOCC4)cc3)n2)cc1` returned a z-score of -0.423.

In turn, `CC(=O)OCC1OC(Nc2cccc(C)c2)C(OC(C)=O)C(OC(C)=O)C1OC(C)=O` (stereo not given) showed a z-score of -0.349.

Consider `Cn1nc(-c2ccc(C(=O)N3CCN(CCO)CC3)cc2)c2ccccc2c1=O`, for which the z-score was -0.0208.

`Cc1ccccc1N=C1c2cc([N+](=O)[O-])ccc2-c2ncccc21` registered a z-score of -0.0207.

As for `CC1(C)CC2CC(C)(CN2C(=O)C23CCC(C)(C(=O)O2)C3(C)C)C1` (stereo not given), the z-score was 0.0773.

As for `CC(OC(=O)CCCOc1ccccc1)C(=O)NC(N)=O` (stereo not given), the z-score was determined as 0.0976.

Turning to `O=C(c1ccccc1)c1ccc(OCC(O)CN2CCOCC2)cc1` (stereo not given), the z-score is -0.0655.

As to `CCN(CC)CCN1C(=O)C(=O)/C(=C(/O)c2c(C)[nH]c(C(=O)OC)c2C)C1c1ccco1` (stereo not given), the z-score was -0.0729.

Consider `Cc1cc(C(F)(F)F)c(C#N)c(SCC(=O)NC2CC2)n1`, for which the z-score is 0.155.

`CS(=O)(=O)N(CC(=O)N1CCN(c2ccccc2)CC1)C1CCCCC1` showed a z-score of 0.084.

For `Cc1ccc2c(c1)N(C(C)C(=O)NCCc1ccccc1)C(=O)CO2` (stereo not given), the z-score amounted to 0.21.

`O=C(NCc1ccc2c(c1)OCO2)C(=O)NC1CCCCC1` had a z-score of -0.077.

Consider `CCCCN=Cc1sc2ccc(OCC)cc2c1O`, for which the z-score was -0.188.

Turning to `CCc1ccc(Oc2coc3cc(OC(=O)c4cc5ccccc5oc4=O)ccc3c2=O)cc1`, the z-score was -0.44.

For `CC1=C(C#N)C(Nc2ccc(C)cn2)(C(F)(F)F)C(=O)N1` (stereo not given), the z-score was -0.145.

`Nc1ncn(C23CC4CC(CC(C4)C2)C3)n1` registered a z-score of -0.106.
